Results taken from the supplement of paper PMC11417369.
The other results are listed elsewhere or left out.

Each sequence was assayed on PfSIP2 AP2 domain 1 (GST-tagged) (assay: gcPBM binding intensity (ln(normalized median fluorescence intensity)); higher = stronger DNA binding).
Method in brief: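 An Agilent 4 × 180k array of primer-extended double-stranded 36-bp intergenic genomic probes, with negative controls, was incubated for 1 h with GST-tagged P. falciparum DNA-binding domains expressed in E. coli. Alexa488 anti-GST antibody detected bound protein, scanned at 488 nm. Binding intensity is the highest Masliner-normalised natural-log median intensity across replicate spots of either probe orientation.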

In order of falling “gcPBM binding intensity (ln)” value:
1. ATTATGCACCAACACACACACACACCCCTAAAAAAT [CACACA_site2568]  10.8
2. AAAAAAAAAAAATACGTGCACTATGATATATTATAT  10.3
3. TATCGTTTTATTCGGTTGCACCAAAAAAATAAAATA [GTGCAC_site9408]  9.76
4. CCACTAATTATGTGCACACAAATTAAAGGTCTACAA [CACACA_site4259]  9.75
5. CACTTCAAAAAAATATGTACACATATATATATATAT [XGTACX_site3075]  9.46
6. ATATATATATATAATTGTACATTTTTAACCTTAACA [XGTACX_site7910]  9.36
7. GGTATTTATGGACGCGTGCACACACATATGAACAAA  9.35
8. TTTTTTTTTTATACATGTACTTAAAAGTAGCACCTT [XGTACX_site1855]  9.35
9. ATTTAATTTTCATGATGTACTATAGTTTAATGCACA [XGTACX_site1624]  9.33
10. TTATTAGGTATATATGCACACAATACCCAAAACAAC [CACACA_site4221]  9.24
11. ACTACGAGTCGTAGAGTGCAGTCTGGAGAAAAGTAC [GTGCAC_site9769]  9.01
12. CACACCACCAACAAAAGTACATACATATATATATAT [XGTACX_site5781]  8.99
13. ATATATATATATAGGAGTACATGAAATACTTAAAAA [XGTACX_site8851]  8.99
14. TAATTGATTCTTCACCGTACTCACACATATATATAT [XGTACX_site6530]  8.93
15. ATATATATATAATAAGTGCAAAAATAATGACCTATA  8.89
16. ATACTTTTAATATGCACATGCAAATATGAAATATCG [TGCATGCA_site603]  8.54
17. TGTGTGGATATATGTATGCACTACCCTTTGGGTCAT [GTGCAC_site9506]  8.47
18. TGATTCAATTTATGCACACTAAAAATTAATTATATT [CACACA_site271]  8.42
19. ATTCATACATGCACACGTACATATTTAAATATAAAA [XGTACX_site8388]  8.17
20. TCCCATATATATATATATATATATATATATAATAAT [TGCATGCA_negctrl_site41]  7.98
21. ATTTACCCTTGCCATGCACACTTTTTTATAGAAAAT [CACACA_site5857]  7.97
22. TATATATTTTTATGCACACACAAAGAAAATTTTCCT [CACACA_site2863]  7.94
23. TATTTTTGAAGTTGCACACACAAAAATAAAAAGTAT [CACACA_site418]  7.84
24. TGTATGTATTTGTGTAGTACGCATAAGTAATAAAAC [XGTACX_site6704]  7.84
25. AAAAAAAAAAAAAGTACACACATACATATAAATATA [CACACA_site8533]  7.64
26. GGTAATAAACAATGAAGTACGTAAAGGTAAAATATT [XGTACX_site2647]  7.46
27. AAATATATATAAGCGTGTACACATTCTGAGTGTTGT [XGTACX_site1088]  7.46
28. TATATATTGCCCTTCACACACACACCCATATATATA [CACACA_site2493]  7.44
29. TTTTGATTTTTTTATTGTACCCATAAACATATAATT [XGTACX_site5202]  7.39
30. TAAATTTTATAAATCTGTACATATGAGCAAGAACAT [XGTACX_site7400]  7.39
31. TTATATGTATTTCTTTGTACACATTTTTATATATAT [XGTACX_site1462]  7.38
32. GAAATAATTTTTATTTGTACACACATACATATATAT [XGTACX_site1862]  7.36
33. ATCAAGCACGAACACACACACACACGCACGCCCACA [CACACA_site6308]  7.31
34. TAGAATAATCTATAAACACACAAACCCAACAAAAGA [CACACA_site6132]  7.31
35. TTTGTAAAAGGTCATACACACATATTCAAAAGAAGT [CACACA_site2947]  7.26
36. ATCTATATTTTTATAACACACAATGATGTACATTAC [CACACA_site6633]  7.24
37. AATATATAATTAATTGCACACCTTGTCACGCCAAAA [CACACA_site1174]  7.2
38. TTATTTATTTTTTCATGTACTTAAATATATTAATGT [XGTACX_site5804]  7.19
39. TATTAATACAGACACACACACACACTAATTAAAATA [CACACA_site7967]  7.15
40. ATTATATATACAACAAGTACAAAAGAAAAATATTAT [XGTACX_site2914]  7.14
41. ATATTTACTCACGTCTTGCACTGAGCAAGCATTATA  7.12
42. ATTTTTTATGAAAACATAAAAAAATGAGATAACCAT [CACACA_negctrl_site894]  7.12
43. TGTAAATATAAATGTAATAAATATGTAAAAATAAAT [XGTACX_negctrl_site171]  7.12
44. AAAAAAAAAAAAAAATCACACATTGGTTAAATATTA [CACACA_site5344]  7.11
45. AAAAAAAAAAGACACACACACACACGGACACATACA [CACACA_site7363]  7.1
46. TATCATTTTTTTAAAACACACATAATAATATAAATA [CACACA_site2845]  7.1
47. AATATTATATAATAAAGTACATATATATTCATATTT [XGTACX_site7204]  7.09
48. ATAATAAAAATAAAATGTACATACATAAATATATAT [XGTACX_site6228]  7.09
49. TGAAAATATTTTATATGTACATATATTATCAATACA [XGTACX_site92]  7.08
50. TTTTGTCGGAAATCGGATAAGAAGAAAAAAAATAAT [GTGCAC_negctrl_site594]  7.07
51. TTATTCATTTCGAAAAGTACAAATTCTGTTTATTAT [XGTACX_site6892]  7.04
52. ATATATAAATTTAATACACACCCAAAAAAAAAAAAA [CACACA_site7719]  7.03
53. AAAAAAAAAAAATACACACACACATATAAATATGTA [CACACA_site6900]  7.02
54. TTTGGCTAGTCAAGTTGTACAAAAAAAAAAAAAAAA [XGTACX_site8382]  7.01
55. ATATATTATAAATGTAGTACCGTTACATAGTCATAG [XGTACX_site390]  6.99
56. TGTAAGTATTCTTGAGGTACACATATAAATATAGTA [XGTACX_site3207]  6.99
57. TCATGTTTTTAATATTGTACTCTCATTTTATATATC [XGTACX_site8412]  6.97
58. GTGTGAAGATATAAATGCATTTTTTTATACATTTTC [CACACA_negctrl_site117]  6.96
59. TTCCTTCAAAATTTAAGTAATAAGATAAAAATATAA [CACACA_negctrl_site1696]  6.96
60. TACCAAAAGAAACACACACACAAAATATATAAATAT [CACACA_site1869]  6.96
61. AATGTTAAAAATGAAAGTACATGGAATTTATTATTT [XGTACX_site4095]  6.95
62. AAAAAAGAAATAATCAAATAAATAAAAAAGATGAAT [XGTACX_negctrl_site607]  6.95
63. TAATAATCAAACTATACACACATAAATAGATATATA [CACACA_site6220]  6.95
64. TAAAGAGTTACCATTTGTACTTACGCACACATAAAA [XGTACX_site3145]  6.95
65. CACAGATAAATTAACACACACACACGGATATTTATA [CACACA_site7788]  6.95
66. TATATTTGAAATATATGTACTTATAATACAGTTTAA [XGTACX_site8039]  6.94
67. AATTTATATTAAAATTGTACATTTCTTCTATAATAC [XGTACX_site8639]  6.94
68. TACAAACAATTAAACAAACACACATATACATGTATA [CACACA_site2061]  6.92
69. ATATTGTTATATGTTTGTACATATTTTTTATATTTT [XGTACX_site6834]  6.92
70. TATTTTCAAAAATATACACACACATAAATATATGTA [CACACA_site8160]  6.92
71. ATGTATACAAATATATGTACGTATGTTCTCTTCTTT [XGTACX_site7865]  6.92
72. CTATCAAATAATAGCAAACACACAAAAAATAAAAAA [CACACA_site4147]  6.91
73. ATATATTGAACCTATGCATGTAAAATATATGTAATA [TGCATGCA_site644]  6.91
74. TAAATATATAAACACACACACATTAATACAGATATT [CACACA_site5851]  6.9
75. GTTTATATATGCTTATAATTTTCAATTGTTTTACAA [TGCATGCA_negctrl_site384]  6.89
76. TTTTATGTTTTTTTTATAAATATTAAAATTCTATAT [CACACA_negctrl_site1477]  6.87
77. GAATGAATACGTTTTACACACTTGAATATAATTTCA [CACACA_site989]  6.87
78. AAAGTATAACGGATACCATTTATGTGATTATTTTGT [XGTACX_negctrl_site188]  6.87
79. AATATATTTAATGAGTGTACATTATTTATTATTATT [XGTACX_site6889]  6.86
80. AAAATTATAAAATGGGCACACATGAAGATTGTAGTA [CACACA_site2226]  6.85
81. AGCTATAATAAATATACACACATATATAAATATGTA [CACACA_site6583]  6.84
82. TATAAATACATCCTATACTTCTCTTTTACAGTTTTA [CACACA_negctrl_site1283]  6.8
83. AAATAAAAAAAATAAAAGCAATCATAATAAAAATCT [CACACA_negctrl_site161]  6.8
84. AGCTATTAATTTATTACATGCAAGATTAAAAGACTA [TGCATGCA_site281]  6.72
85. AAATTTTATAAAGGAACACACATTTTTTTTTTTTCT [CACACA_site2368]  6.71
86. AAATATTAAATGGAAAACAAATATATATATCTTAAT [XGTACX_negctrl_site383]  6.7
87. GACATTAATTATTTGACACACGACTGGGTGGTGATT [CACACA_site306]  6.63
88. TTTTTATGTTATCAAATAAATATAAATATAATTCAT [CACACA_negctrl_site1522]  6.61
89. AAAAAAAATTAAAATAAAATATAAATATAAAATATA [GTGCAC_negctrl_site714]  6.57
